# Among all 410,000 compounds or so, about 5,000 (1.2%) were called active. The shares of active, inactive and inconclusive entries below differ from those in the screen. Calls follow the shape of the dose curve; as a rule, active = well fitted inhibition curve with a large enough effect; inconclusive = small, poorly fitted or top-dose-only effect; inactive = no such curve, though single readings can be large or run the other way. Where the call is inconclusive, the potency comes from a doubtful curve fit.
# Experiment: qHTS for Inhibitors of TGF-b; also: nearly all actives have a fitted effect of over 65% in size
# Settings: HepG2 CAGA-GFP TGF-b/SMAD3 reporter, GFP fluorescence, 18 h, TGF-beta stimulated, 500 pg/mL final; series mostly up to 46.1 µM
# Procedure, shortened: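 Smad-responsive CAGA-GFP expression was quantified in HEPG2 cells exposed to compounds and 500 pg/mL final TGF-beta for 18 h at 37 degrees C; unstimulated wells defined full inhibition.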
# Potency is read from the fitted curve at half-maximal effect; tags tell the direction and shape of the fitted curve.
row,Structure (SMILES),Potency
1,OC(c1ccc2ccccc2c1)c1ncc(-c2ccc(C(F)(F)F)cc2)[nH]1 (centres undefined),"inconclusive: 14.1 µM [inhibitor, single point]"
2,NC(=O)CC(NC(=O)Cc1ccc(Br)cc1)c1ccc(NCc2ccc(F)c(F)c2)c([N+](=O)[O-])c1 (centres undefined),"inconclusive: 12.6 µM [inhibitor, partial curve, poor fit]"
3,CCn1cc(/C=C(\NC(=O)c2cc(OC)c(OC)c(OC)c2)C(=O)N2CCN(C)CC2)c2ccccc21,"inconclusive: 15.8 µM [inhibitor, single point]"
4,Cc1ccc(O)c(NC(=O)COCc2cc(-c3ccco3)on2)c1,"inconclusive: 3.98 µM [inhibitor, full curve]"
5,O=C(/C=C/c1ccc2ccccc2n1)N1CCN(S(=O)(=O)c2ccc(F)cc2)CC1,"inconclusive: 17.8 µM [inhibitor, partial curve, poor fit]"
6,COCCn1cnc2c1c(=O)[nH]c(=O)n2Cc1ccccc1,inactive
7,CC(NC(=O)C1(C)CC1(Br)Br)C(C)(C)C (centres undefined),"inconclusive: 5.62 µM [inhibitor, single point]"
8,CC(=O)Nc1nonc1-c1nnc(SCc2ccccc2Cl)n1C,inactive
9,COc1ccc(C(C)(O)c2nc(-c3ccccc3C)cs2)cc1 (centres undefined),"inconclusive: 35.5 µM [inhibitor, single point]"
10,CCc1ccc(CN/C=C/C(=O)c2ccc(Br)cc2)cc1,"inconclusive: 8.91 µM [inhibitor, partial curve, poor fit]"
11,Cc1ccc(C)c(S(=O)(=O)c2nnn3c2nc(N2CCCCC2)c2sccc23)c1,"inconclusive: 1 µM [inhibitor, partial curve, poor fit]"
12,COC(=O)c1ccc(NC(=S)NCCc2ccccc2C)cc1,"inconclusive: 22.4 µM [inhibitor, single point]"
13,Cc1ccc(-n2nnnc2SCc2nnc(-c3ccccc3Br)o2)cc1,inactive
14,NS(=O)(=O)c1ccc(CCNC(=O)Cc2ccc(S(=O)(=O)N3CCOCC3)s2)cc1,inactive
15,CC1=NN(c2ccccc2)C(=O)/C1=C\c1ccc(Oc2ccc([N+](=O)[O-])cc2[N+](=O)[O-])cc1,"inconclusive: 25.1 µM [inhibitor, partial curve, poor fit]"
16,CC(C)c1ccc(NC(=O)C(Cc2ccccc2)NS(=O)(=O)c2ccc3c(c2)oc(=O)n3C)cc1 (centres undefined),inactive
17,C=CCn1c(SCC(=O)/C(C#N)=C(\C)N)nc2sc(CC)cc2c1=O,"inconclusive: 0.112 µM [inhibitor, full curve, poor fit]"
18,CCCCOc1ccc(CSC2=NCCN2)cc1[N+](=O)[O-],"inconclusive: 20 µM [inhibitor, single point]"
19,COc1ccc(OC)c(NC(=O)Cc2coc3ccc(C)cc23)c1,inactive
20,CCC(=O)n1nc(-c2ccc(Cl)cc2)nc1NCc1ccccc1,inactive
21,O=C(CCNC(=O)c1ccccc1Cl)Nc1ccc(Cl)c(C(F)(F)F)c1,"inconclusive: 22.4 µM [inhibitor, single point]"
22,CCCN(CC1CC1)c1nc(N)c(C#N)c(CC#N)c1C#N,"inconclusive: 1.78 µM [inhibitor, partial curve]"
23,CN1CCN(C(=O)c2ccc3c(=O)n(-c4ccc(F)cc4)c(=S)[nH]c3c2)CC1,"inconclusive: 6.31 µM [inhibitor, partial curve, poor fit]"

row,Structure (SMILES),Potency
1,CC(=O)OCCn1c([N+](=O)[O-])cnc1C=[N+]([O-])C1CCCCC1,inactive
2,CCOc1ccccc1N1CCN(C(=O)c2ccc3[nH]c4c(c3c2)CCCC4)CC1,inactive
3,Cn1cc(-c2cc3n(n2)CCC(=O)N3CCCC(=O)Nc2ccccc2F)c2ccccc21,"inconclusive: 35.5 µM [inhibitor, single point]"
4,Cc1noc2ncnc(N3CCCC(C(=O)Nc4cccc(C(F)(F)F)c4)C3)c12 (centres undefined),"inconclusive: 8.91 µM [inhibitor, partial curve, poor fit]"
5,c1ccc(Oc2cccc(OCCCCN3CCCC3)c2)cc1,"inconclusive: 35.5 µM [inhibitor, single point]"
6,COc1ccc(C(=O)CSc2nnc3ccc(-c4ccccn4)nn23)cc1,inactive
7,O=c1cc(O)c2sc3nc(-c4ccccc4)cc(C(F)(F)F)c3c2[nH]1,"inconclusive: 0.112 µM [inhibitor, full curve, poor fit]"
8,COc1ccc(OCCNC(=O)C2(C)CCN2Cc2ccc3ccccc3c2)cc1 (centres undefined),active: 14.1 µM
9,CCCN(CC(=O)Nc1ccccc1OC)C(=O)Cc1ccccc1F,"inconclusive: 0.316 µM [inhibitor, full curve]"
10,CC1=C(C(=O)OCC(C)C)C(c2cccc(F)c2)N2C(=O)C(C)SC2=N1 (centres undefined),"inconclusive: 25.1 µM [inhibitor, single point]"
11,CCN(CC)CCC(=O)N1C/C(=C/c2ccccc2)C(=O)/C(=C\c2ccccc2)C1,active: 2.82 µM
12,O=C(c1ccccc1)c1ccccc1NC(=O)C1CCCN1Cc1ccccc1 (centres undefined),inactive
13,COc1ccc(/C=N\NC(=S)SCN2C(=O)C3CCC(C)(C2=O)C3(C)C)cc1 (centres undefined),inactive
14,Cc1ccc(SCC(=O)OC(C)C(=O)NCc2ccccc2)cc1 (centres undefined),"inconclusive: 0.398 µM [inhibitor, full curve, poor fit]"
15,COc1ccc(OC)c(C(=O)COC(=O)COc2ccccc2)c1,"inconclusive: 12.6 µM [inhibitor, partial curve, poor fit]"
16,Nn1c(SC/C=C/c2ccccc2)nnc1-c1ccccn1,inactive
17,CCCOCc1cc(CN2CCN(c3ccccc3OC)CC2)c(O)c2ncccc12,active: 2 µM
18,COc1ccccc1Nc1nc(-c2ccc3c(c2)NC(=O)CO3)cs1,inactive
19,Cc1ccc(NC(=S)N(C)Cc2cn(C)c3ccccc23)cc1,inactive
20,Cc1ccc(CSCCNC(=O)CN(c2cccc(C)c2C)S(=O)(=O)c2ccccc2)cc1,inactive
21,O=C(NCc1ccc(Cl)cc1)c1cnc(N2CCOCC2)c2ccccc12,"inconclusive: 0.794 µM [inhibitor, full curve, poor fit]"
22,CCCCC1(C(=O)OCC)CC(CSC(=N)N)OC1=O (centres undefined),"inconclusive: 35.5 µM [inhibitor, single point]"
23,COc1ccc(OC)c(S(=O)(=O)NCc2ccc3c(c2)CCN3C(=O)c2cccc(C)c2)c1,"inconclusive: 35.5 µM [inhibitor, single point]"

row,Structure (SMILES),Potency
1,C=CCNC(=O)c1onc(CSc2ccc(Cl)cc2)c1C(=O)O,"inconclusive: 5.62 µM [inhibitor, full curve, poor fit]"
2,O=C(NC(c1ccccc1)c1c(O)ccc2ccccc12)c1ccccc1Cl (centres undefined),"inconclusive: 14.1 µM [inhibitor, single point]"
3,Cc1cc(O)c(-c2n[nH]c3c2C(c2cccc(O)c2)N(Cc2cccnc2)C3=O)cc1Cl (centres undefined),"inconclusive: 35.5 µM [inhibitor, partial curve, poor fit]"
4,CN(C(=O)CSc1nc2ccccc2[nH]1)c1ccc(F)cc1,"inconclusive: 35.5 µM [inhibitor, single point]"
5,Cc1cc(C)c2c(=O)n(CC(=O)Nc3cccc(F)c3)sc2n1,"inconclusive: 22.4 µM [inhibitor, single point]"
6,CCOc1ccc(NC(=O)Cc2cccc3ccccc23)c([N+](=O)[O-])c1,"inconclusive: 6.31 µM [inhibitor, single point]"
7,CC(C)COc1ccc(C(=O)N2CCC(c3nc4ccccc4s3)CC2)cc1,"inconclusive: 35.5 µM [inhibitor, single point]"
8,Cc1ccc2occ(CC(=O)Nc3c(C(=O)Nc4ccc(Cl)cc4)oc4ccccc34)c2c1,inactive
9,Cc1cc(-c2ccccc2)nc(N/N=C/c2ccco2)n1,inactive
10,O=C(CC1N=C2c3ccccc3N=C(SCC(=O)Nc3ccccc3F)N2C1=O)NCc1ccc2c(c1)OCO2 (centres undefined),"inconclusive: 1 µM [inhibitor, full curve, poor fit]"
11,COC(=O)C(CCC(C(=O)OC)N1C(=O)c2ccccc2C1=O)N1C(=O)c2ccccc2C1=O (centres undefined),"inconclusive: 5.62 µM [inhibitor, single point]"
12,COc1ccc(OC)c(Nc2nc(-c3sc(N)nc3C)cs2)c1,inactive
13,Cc1cccc(C)c1NC(=O)CN(C)S(=O)(=O)c1ccc2[nH]c3c(c2c1)CCCC3,"inconclusive: 12.6 µM [inhibitor, partial curve, poor fit]"
14,Cc1oc(-c2ccccc2)cc1C(=O)Nc1cccc(/C=C/C(=O)O)c1,inactive
15,CCOC(=O)c1ccc(NC(=O)c2cc(S(=O)(=O)N3CCOCC3)ccc2O)cc1,"inconclusive: 12.6 µM [inhibitor, partial curve, poor fit]"
16,Cc1ccc(Cn2cccc2C2=NC(C)CO2)cc1 (centres undefined),inactive
17,CCOc1ccc(C(=O)Nc2ccc3nc4c(c(Nc5ccccc5OC)c3c2)CCCC4)cc1,"inconclusive: 31.6 µM [inhibitor, single point]"
18,CCC1CCc2sc(C(=O)NC3CCN(Cc4ccccc4)CC3)cc2C1 (centres undefined),inactive
19,Cc1ccc(-c2csc(NNC(=O)c3ccccc3)n2)cc1,"inconclusive: 12.6 µM [inhibitor, single point]"
20,COc1cc(C(=O)NCCSc2ccccc2)cc(OC)c1OC,inactive
21,COc1cc(NC(=O)[C@@H](NC(=O)c2ccco2)C(C)C)c(OC)cc1NC(=O)c1ccccc1,inactive
22,S=C(NCCSCc1ccc(Cl)cc1Cl)Nc1ccccc1,"inconclusive: 22.4 µM [inhibitor, single point]"
23,CCOC(=O)CC(NS(=O)(=O)c1cc(-c2cc(C)no2)ccc1C)c1ccc(C)cc1 (centres undefined),"inconclusive: 20 µM [inhibitor, partial curve, poor fit]"
